From US20210115143A1 (R PHARM OVERSEAS, published 2021) come the findings set out here.

What is called Kd is the concentration at which binding is half-saturated.

Assay [1] has as its target T1, PD-L1-Fc, human IgG Fc fusion protein, human recombinant, HEK293-derived, Phe19-Thr239 (R&D systems Cat … (human, UniProt Q9NZQ7 in part)).
T1 construct: range 19-239; also called PD-L1-Fc fusion protein; dimeric PD-L1-Fc; not shown: human IgG Fc of the bought fusion protein
As to the kind of experiment: SPR (Reichert), antibody immobilized directly, PD-L1-Fc in solution, 1:1 model, 25 C.

In assay [2] the target is T1, PD-L1-Fc, human IgG Fc fusion protein, …. As to the kind of experiment: SPR (Reichert), PD-L1-Fc immobilized, antibody in solution, 1:1 model, 25 C.
The target in assay [3] is T2, PD-L1-His tagged, human recombinant, HEK293-derived, Phe19-Thr239 (R&D systems Cat #9049-B7-100) (human, UniProt Q9NZQ7 in part).
T2 construct: range 19-239; also called PD-L1-His ligand; monomeric PD-L1; not shown: His tag
In words: SPR (Reichert), antibody immobilized directly, PD-L1-His in solution, 1:1 model, 25 C.

For assay [4], the target named is human PD-L1 on primary human cells in the dendritic cell / CD4+ T cell mixed lymphocyte reaction (human, UniProt Q9NZQ7). As to the kind of experiment: cell-based or functional assay.
For assay [5], the target named is T2, PD-L1-His tagged, human recombinant, …. In words: SPR (Reichert), antibody captured by immobilized anti-human IgG, PD-L1-His in solution, 1:1 model, 25 C.

B1: B60-55-1 antibody (variant of B60-55) (antibody, human IgG1, kappa, N297A)
heavy: QVQLVQSGAEVKKPASSVKVSCTASGGSFSTYAISWVRQAPGQGLEWMGGIIPIFGTTKYAQRFQGRVTITADESTTTAYMELSSLISDDTALYYCTTSRGFNYGWFDYWGQGTLVTVSSASTKGPSVFPLAPSSKSTSGGTAALGCLVKDYFPEPVTVSWNSGALTSGVHTFPAVLQSSGLYSLSSVVTVPSSSLGTQTYICNVNHKPSNTKVDKKV[sequence of human IgG1 Fc with changes not given]
light: EIVMTQSPATLSLSPGERATLSCRASQSVGIHLAWYQQKPGQAPRLLIYGASSRATGIPDRFSGSGSGTDFTLTISRLEPEDFAVYYCQQYGSLPRTFGQGTKVEIKRTVAAPSVFIFPPSDEQLKSGTASVVCLLNNFYPREAKVQWKVDNALQSGNSQESVTEQDSKDSTYSLSSTLTLSKADYEKHKVYACEVTHQGLSSPVTKSFNRGEC
notes: also called B50-55-1 [sic]
With B1, the Kd in assay [1] was determined as 0.45 nM; in assay [2] it was 0.66 nM; in assay [3], 14.3 nM; in assay [5] it was 40.2 nM. Also, in assay [4], the “EC50 of IL-2 secretion in mixed lymphocyte reaction (MLR)” value is 0.467 nM.
